In all, about 310,000 compounds went through this assay and about 14,000 (4.5%) showed an effect of 50% or more. The effect is printed as a negative number. The list shows a part of the results.
target: human ether-à-go-go-related gene (hERG) potassium channel (human, UniProt Q12809); assay: primary screen, population patch clamp on CHO cells stably expressing hERG
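Further: peak tail current of the secondary pulse compared with the same well before compound.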

Chain of human ether-à-go-go-related gene (hERG) potassium channel (Q12809 whole entry, looked up): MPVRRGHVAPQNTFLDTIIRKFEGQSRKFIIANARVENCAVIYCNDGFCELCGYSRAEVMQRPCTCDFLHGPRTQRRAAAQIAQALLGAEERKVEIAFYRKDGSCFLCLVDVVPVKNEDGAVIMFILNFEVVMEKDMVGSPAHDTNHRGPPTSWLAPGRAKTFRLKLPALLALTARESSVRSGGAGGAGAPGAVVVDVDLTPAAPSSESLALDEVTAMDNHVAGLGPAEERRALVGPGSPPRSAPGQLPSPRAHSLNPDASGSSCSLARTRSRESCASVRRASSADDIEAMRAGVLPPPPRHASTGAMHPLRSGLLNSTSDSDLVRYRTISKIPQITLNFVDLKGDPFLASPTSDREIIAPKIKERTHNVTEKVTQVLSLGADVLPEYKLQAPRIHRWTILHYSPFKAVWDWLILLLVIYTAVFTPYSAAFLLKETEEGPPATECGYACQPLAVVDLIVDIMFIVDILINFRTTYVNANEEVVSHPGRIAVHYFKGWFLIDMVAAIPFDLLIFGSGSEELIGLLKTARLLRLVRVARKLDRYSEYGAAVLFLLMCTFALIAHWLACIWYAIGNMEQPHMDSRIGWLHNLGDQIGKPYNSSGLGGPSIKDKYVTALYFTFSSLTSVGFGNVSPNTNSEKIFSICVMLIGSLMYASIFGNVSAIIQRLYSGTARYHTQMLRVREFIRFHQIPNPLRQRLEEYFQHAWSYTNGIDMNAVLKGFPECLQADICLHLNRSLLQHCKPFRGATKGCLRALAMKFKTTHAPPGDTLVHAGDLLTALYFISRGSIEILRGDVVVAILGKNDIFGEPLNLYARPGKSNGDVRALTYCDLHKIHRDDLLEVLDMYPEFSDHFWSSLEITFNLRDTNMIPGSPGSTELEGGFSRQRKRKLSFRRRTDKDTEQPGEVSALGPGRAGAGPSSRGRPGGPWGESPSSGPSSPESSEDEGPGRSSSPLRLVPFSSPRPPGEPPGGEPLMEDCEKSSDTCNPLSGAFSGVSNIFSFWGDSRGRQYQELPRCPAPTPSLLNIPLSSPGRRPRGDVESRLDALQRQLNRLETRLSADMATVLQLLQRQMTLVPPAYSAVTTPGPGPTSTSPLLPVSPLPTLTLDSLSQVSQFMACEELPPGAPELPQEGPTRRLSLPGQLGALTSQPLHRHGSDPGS

Row | Compound | hERG current change (%, negative = inhibition) at 10uM [%]
1 | C[C@H](NC(=O)c1nc[nH]c1C(=O)NCCCCCNC(=O)OC(C)(C)C)C(=O)OCc1ccccc1 | 5.49
2 | CCOc1ccccc1N1CCN(C(=O)c2ccccc2SCC(=O)N2CCCC2)CC1 | 10.6
3 | CC(C)C(C)N(Cc1cccc(C(=O)O)c1)C(=O)c1ccc2ccccc2n1 (stereo not drawn) | 20.6
4 | COC(=O)c1cc(COC(=O)COc2ccc(C)c(C)c2)oc1C | 20.7
5 | COc1ccc(C(=O)N2CCN(CC(=O)N3CCOCC3)CC2)cc1 | -1.69
6 | CC(=O)CSc1cc(C)nc2c(-c3ccccc3)c(C)nn12 | 4.3
7 | CCOc1ccc(N2CC(C(=O)NCC(=O)Nc3ccc(F)c(F)c3F)CC2=O)cc1 (stereo not drawn) | -17.7
8 | CCCCC(=O)N/N=C/c1c(O)n(CCc2ccccc2)c(=O)[nH]c1=O | 18.3
9 | O=C(NCc1ccccc1)c1ccc2c(=O)n3c(nc2c1)CCCCC3 | -22
10 | CCn1c(=O)c([N+](=O)[O-])c(NCC2CCCO2)c2ccccc21 (stereo not drawn) | -16.6
11 | CC1(C)Cc2ccccc2-c2nnc(SCC(=O)Nc3ccc4c(c3)OCO4)n21 | -63.2
12 | COc1ccc2cc(CN(CC3CCCO3)C(=S)NCc3ccco3)c(=O)[nH]c2c1 (stereo not drawn) | -8.85
13 | COc1ccc(NS(=O)(=O)c2cc(C(=O)N3CCC3)ccc2C)cc1 | -13
14 | C/C(=N\N1CCN(C2c3ccccc3-c3ccccc32)CC1)c1ccco1 | 13.7
15 | CCOC(=O)N1CCN(CC(O)COC2CC(C)CC(C)(C)C2)CC1.Cl (stereo not drawn) | -1.94
16 | Nc1nnc(SCC(=O)Nc2ccccc2)s1 | 13.6
17 | COc1ccc(C2(C)NC(=O)N(CC(=O)NCCC3=CCCCC3)C2=O)cc1OC (stereo not drawn) | 13.1
18 | CCOC(=O)N1CCC(N2CC34C=CC(O3)C(C(=O)O)C4C2=O)CC1 (stereo not drawn) | 7.72
19 | Fc1cccc(CN2CCN(Cc3nc(-c4cnccn4)no3)CC2)c1 | 6.88
20 | CCOc1ccc(N/C(N)=N/c2nc(CSc3nnc(C)s3)cc(=O)[nH]2)cc1 | 12.5
21 | CCn1cc(C(=O)N[C@H](C)c2ccccc2)c(=O)c2cc(F)c(N3CCN(C)CC3)cc21 | -5.83
22 | Cc1cc(=S)n(-c2ccccc2)n1C | 19.1

Row | Compound | hERG current change (%, negative = inhibition) at 10uM [%]
23 | Cc1ccc(S(=O)(=O)NC2CCOC(C)(C)C2)cc1 (stereo not drawn) | 8.84
24 | CC(=O)Oc1cccc(N2C(=O)C3CC=CCC3C2=O)c1 (stereo not drawn) | 7.23
25 | COCCN(C(=O)COC(=O)CC1CCCCC1)c1c(N)n(Cc2ccccc2)c(=O)[nH]c1=O | 10.8
26 | CSc1nc2ccc3nc(NC(=O)c4ccccc4)sc3c2s1 | 11.1
27 | CN(C)Cc1ccccc1COc1ccccc1.O=C(O)/C=C\C(=O)O | 0.278
28 | CC(=O)NCc1ccc(C(=O)CCl)cc1 | 7.59
29 | COCCN(C(=O)c1snc(C(N)=O)c1N)C(C(=O)NC1CCCCC1)c1cc(OC)c(OC)c(OC)c1 (stereo not drawn) | -9.61
30 | CC(C)c1ccc(-c2cc(C(=O)N3N=C(C(F)F)CC3(O)C(F)F)c3ccccc3n2)cc1 (stereo not drawn) | 19.9
31 | CCC(C(=O)NCCCN1CCN(C)CC1)n1nc(C)c2sc3ccccc3c2c1=O (stereo not drawn) | 0.429
32 | CC1Sc2ccc(S(=O)(=O)CCC(=O)NCc3ccccc3)cc2NC1=O (stereo not drawn) | 17.2
33 | O=C(NCc1ccc(F)cc1)NC(=O)c1ccc(Cl)cc1 | 8.5
34 | COc1ccc(Nc2ncnc3sccc23)cc1 | 15.1
35 | Cc1cc(C)c(C(=O)CN2C(=O)NC3(CCCCC3)C2=O)cc1C | 30.3
36 | Cc1ccc(NC2=NCC(=O)N2Cc2ccc3c(c2)OCO3)c(C)c1 | -1.91
37 | Cc1oc(-c2ccccc2F)nc1CN1CCC(C(=O)NCc2cccs2)CC1 | -63.7
38 | Nc1nc(Nc2ccc(Cl)cc2Cl)nc(C(F)(F)F)n1 | 2.43
39 | COc1ccc(NC(=O)Cc2nnc(SCC(=O)Nc3nccs3)n2C)cc1 | 6.78
40 | COc1ccc(CCNCC(=O)Nc2ccc(C)c(S(=O)(=O)N(C)C)c2)cc1OC | -21.1
41 | CCCCOc1ccc(C(=O)N2CCN(CC(=O)Nc3ccc(C)cc3)CC2)cc1OC | -47.1
42 | COc1cccc(CC2(CO)CCN(C(=O)NCCc3ccccc3)CC2)c1 | 0.136
43 | Cc1c(C(=O)C(=O)NCc2cccs2)c2ccccc2n1C | -15.4
44 | S=c1nc(SCc2ccccc2)[nH]c2ccccc12 | -15.3

Row | Compound | hERG current change (%, negative = inhibition) at 10uM [%]
45 | O=C(NC1CCCCCC1)C1CCCN(S(=O)(=O)c2cnc[nH]2)C1 (stereo not drawn) | 21.9
46 | CC(C(=O)NC1CCCc2ccccc21)N1CCN(c2ccc(F)cc2)CC1 (stereo not drawn) | -35.6
47 | COc1ccc(-n2ccnc2SCC(=O)Nc2ccc(OC)cc2OC)cc1 | 2.82
48 | CN1CCN(Cc2nc3ccccc3c(=O)n2Cc2nc(-c3ccc4ccccc4c3)cs2)CC1 | -6.55
49 | COc1ccnc(-n2cccc2C#N)c1C#N | 3.69
50 | CN(Cc1ccccc1)C(=O)c1ccccc1NC(=O)c1ccccc1 | -12.7
51 | CCOC(=O)Cc1nnc(NCc2ccccc2)c2ccccc12 | -14.1
52 | CC(OCC(O)CN1CCCCC1CCO)c1ccc(Cl)cc1 (stereo not drawn) | 4.2
53 | CN(C(=O)COc1ccc(Cl)cc1Br)C1CCCCC1 | -11.5
54 | CC1CCN(S(=O)(=O)c2cccc(C(=O)NCC3CCCO3)c2)CC1 (stereo not drawn) | 2.25
55 | O=C(N/N=C/c1ccc(OC(F)F)cc1)C1=COCCO1 | -13.2
56 | CCC(C(=O)NCCc1ccc(C)cc1)n1nc(C)c2c(C)n(-c3ccccc3)nc2c1=O (stereo not drawn) | -39.1
57 | CCc1ccc(OC)c(S(=O)(=O)Nc2ccc(Cc3ccncc3)cc2)c1 | -24.8
58 | CCOC(=O)C1=CC[C@@H](c2cc3ccc(OC)cc3n2C)N(S(=O)(=O)c2ccc(C)cc2)[C@H]1C(=O)OCC | 0.974
59 | C=CCNC(=O)CCC(=O)NNc1nc2ccccc2c2nc(-c3ccccc3)nn12 | -20.8
60 | CCNC(=O)c1ccc(N(C)S(=O)(=O)c2cccs2)cc1 | 26.5
61 | COc1ccc([C@H]2CC(=O)C=C(c3cccc(OC)c3)C2)cc1 | -82.1
62 | CCN1CCN(CC(O)COc2ccc3c(c2)CCC3)CC1.Cl (stereo not drawn) | 5.59
63 | COc1ccccc1-c1nnc(NC(=O)c2ccc(S(=O)(=O)N(C)CC3CCCO3)cc2)o1 (stereo not drawn) | 2.99
64 | CN(C(=O)c1ccc(Cl)nc1)C1(c2ccccc2Cl)CCCCC1=O (stereo not drawn) | 0.299
65 | O=C(COC(=O)c1cc2ccccc2cc1O)c1ccccc1 | -7.66
66 | CCOC(=O)C1CCCN(C/C=C/c2ccccc2[N+](=O)[O-])C1 (stereo not drawn) | -68.2

Row | Compound | hERG current change (%, negative = inhibition) at 10uM [%]
67 | O=C(/C=C/c1ccco1)N(Cc1ccc(F)cc1)C1CCS(=O)(=O)C1 (stereo not drawn) | -30.5
68 | O=C(/C=C\Nc1ccccc1Br)c1ccc2c(c1)OCO2 | 21.5
69 | Cc1csc(C(C)N(C)C(=O)CCc2nnc(CCc3ccccc3)o2)n1 (stereo not drawn) | -12.9
70 | O=C(CN(CC1CCCO1)C(=O)CNS(=O)(=O)c1ccccc1)NCc1ccccc1 (stereo not drawn) | -7.15
71 | Cc1noc(C)c1C(=O)OCC(=O)NCc1ccc(Cl)cc1 | 3.82
72 | Cc1cccc(N2CCN(C(=O)c3cc4c(=O)[nH]c5ccccc5c4n3C)CC2)c1C | 14.6
73 | COc1ccccc1OCc1nnc(SCC(=O)N2CCCC2)o1 | 15.7
74 | COCCn1nnnc1C(c1cccc(OC)c1OC)N1CCN(C2CCCCC2)CC1.Cl (stereo not drawn) | -3.08
75 | COc1ccc(N=C(C)c2c(O)n(C3CCCCC3)c(=O)[nH]c2=O)c(OC)c1 | 4.3
76 | CS(=O)(=O)NN1C(=O)c2ccccc2NC1c1cc2ccccc2nc1Cl (stereo not drawn) | -23.6
77 | CCOC(=O)NC(=O)/C(C#N)=N\Nc1ccc(Cl)cc1 | 18.2
78 | O=C(O)C1=C[C@H](c2ccccc2)C[C@H](OCc2ccc(CO)cc2)O1 | 12.7
79 | O=C(O)C1CC=CCC1C(=O)Nc1ccc2c(c1)CCC2 (stereo not drawn) | -14.8
80 | Cn1c(=O)c2c(ncn2CCOc2cccc(Br)c2)n(C)c1=O | -33.3
81 | COCCn1c(SCC(=O)Nc2ccc3c(c2)OCCO3)nnc1C(C)C | 2.68
82 | Cc1ccc(-c2nnn(CC(=O)N(c3ccc(F)cc3)C(C(=O)NC(C)(C)C)c3ccco3)n2)o1 (stereo not drawn) | 9.24
83 | COc1cc(CN2CCC(Cc3ccccc3)CC2)cc([N+](=O)[O-])c1O | 0.943
84 | COc1cc(/C=C(\C#N)c2nn(CCO)c(N)c2C#N)cc(OC)c1OC | 12.5
85 | COc1cc(S(=O)(=O)Nc2cccc(C)c2)ccc1NC(=O)c1ccncc1 | 19.6
86 | COc1cc(OC)c(C2C(C(=O)Nc3ccc(C)cc3C)=C(C)Nc3ncnn32)cc1OC (stereo not drawn) | 16.4
87 | Cc1ccc(NC(=S)Nc2c(C)n(C)n(-c3ccccc3)c2=O)cc1 | -7.19

Reference: PMC4336329 (PLoS ONE, 2015)
